# Some of the results follow.
# System: PfSIP2 AP2 domain 1 (GST-tagged)
# Test: gcPBM binding intensity (ln(normalized median fluorescence intensity)); higher = stronger DNA binding
# Method in brief: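 For binding intensity, the highest Masliner-normalised natural-log median intensity across replicate spots of either probe orientation was taken. Protein bound to the array was stained with Alexa488 anti-GST antibody and scanned at 488 nm. The protein, GST-tagged P. falciparum DNA-binding domains from E. coli at about 25 μg on average, had been applied for 1 h to an Agilent 4 × 180k array of primer-extended double-stranded 36-bp intergenic genomic probes and negative controls.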
row,Sequence,gcPBM binding intensity (ln)
1,TATTAATTCTTAAATTTTTTTTTTTAATTCCTAGGA [CACACA_negctrl_site879],6.54
2,GAATGAATCAATGTTTGTACTCAACAAATTATAAGG [XGTACX_site5122],7.06
3,GCCTTCCTTCTAAATGCACACGGAAAGTATAAATGT [CACACA_site8797],7.88
4,CAATAATTTTTTAAATGTACTTTATTATAATTTAAT [XGTACX_site135],6.8
5,TATATATAATACAGTATGCACTATTTTTATTAAAAA,8.8
6,TTTTCTTACATCTTATAAAAAAAAATATATATTATA [GTGCAC_negctrl_site118],6.9
7,GTCTAACAACCAAACGCACACACACTAATAAAAAAA [CACACA_site8026],7.91
8,TATTTTAAAACAAAAATATAATTTCATAAAAATATA [CACACA_negctrl_site394],6.57
9,TAATATATATATTTATGTACATATAAATTTTCTCCT [XGTACX_site4496],7.01
10,ATATATCAAAAATGATGACATAAATATATTAATTTA [TGCATGCA_negctrl_site259],6.83
11,ATAAAATAATCTTATGCACACCAAAAATTTATATAA [CACACA_site8332],7.89
12,TTTTTGTAAAATAAACGTACAAAACAATTGTTCATT [XGTACX_site6537],6.94
13,TATCTGTATGTATGTACACACAAAAAATGGAATATA [CACACA_site5947],7.31
14,TATAAACCAATGAACACACAAACATATATATATATA [CACACA_site3168],8.88
15,TCTTTTTATATTTATTGTACATAAAAAATAAAACAT [XGTACX_site4073],7.39
16,TTTTTTTTTCTTTCTTTCTTTTGTAAAAACCTCAAA [CACACA_negctrl_site723],6.68
17,ATATGTATATATAAAAGTACGCGTAAAAAAAAAAAA [XGTACX_site5377],6.99
18,TAAATATATAAATACACACACATACACAAAAAAAAA [CACACA_site5890],6.92
19,TATACACCCTAAAATACACACACACCCACCCATATA [CACACA_site9380],7.11
20,AATCACAACAGACACACACACAAAAAAAAAAAAAAA [CACACA_site1442],7.24
21,ATATGTTATATAAATATATATATATATATATATATA [TGCATGCA_negctrl_site594],9.55
22,TTAATATAATAGAAGTGTACACACATATTTATGTGT [XGTACX_site6672],7.28

row,Sequence,gcPBM binding intensity (ln)
1,TAATAATAAAAATAAACACACATATATCTGTATTTA [CACACA_site5572],6.71
2,ATATATATATATATAGTGCATAAAATAAGTTTCTAA,9.62
3,TATTTATAAACATACGCACACATTAAAATATATATA [CACACA_site6051],7.26
4,GGTGGAAACAATTACACACACACAAAAAAAAAAAAA [CACACA_site3208],7.04
5,TTTTTATAAATACACATAAATATATATATATATATA [TGCATGCA_negctrl_site393],9.2
6,ACACAAAAAAATATATATATATATATATATATGTTA [CACACA_negctrl_site55],7.86
7,AAAAAAAAAAAAAAATGTACATTTTGAAAGGATATA [XGTACX_site8217],7.38
8,ATGCATTATTAGAATACACACCATACGCATATTTAT [CACACA_site4319],7.15
9,TAAAGAAAAAGAGAATGTACATGAGAAAAGTATACT [XGTACX_site7472],7.05
10,AGAAAAAAAAAAAAATGTACAGACTTTTTCTTATAA [XGTACX_site6481],6.79
11,AAAAAAGATAATTATGCACACACACCCACCCACCCA [CACACA_site8825],8.12
12,ATATACACACAAAAACGTACACATATATATATGTAT [XGTACX_site2673],7.28
13,GGTATAATAATATATAGTACACACAAAAATGGAAGT [XGTACX_site7058],7.45
14,AAAAAAAAAAAAAGCACACATATAAATATGAATAAA [CACACA_site1393],7.18
15,AAAAAAAAAAAAAACACACACATACACCCAAAAATG [CACACA_site4223],7.48
16,AAAAAAAAAAAAAAAAAAAAAAAAATATATAATTTA [CACACA_negctrl_site583],8.71
17,CAATCATGGGTTTACACACACATGCATGTGAAAATT [CACACA_site1349],6.84
18,CATATTAAAAATTATTGTACATATTAATGAATATAA [XGTACX_site2734],7.07
19,GATGATAATAAATTTATATATAATATTATCTTATGT [GTGCAC_negctrl_site672],6.9
20,ATTTTTGCAGTAATTAAATAGACAAAATGAAAAAAA [CACACA_negctrl_site1537],7.15
21,AACCAAACAAATAAACGTACAAACATTACATATATT [XGTACX_site2265],7.05
22,ACAATAAAGAAGTGTACACATATATCAATAAAAAAA [CACACA_site5228],7.13

row,Sequence,gcPBM binding intensity (ln)
1,AAAATAATATTTAATACACACATAATTTTAATATAA [CACACA_site4588],6.7
2,TACTTATATTATTTTATTATTAAATTTAAAACGAAA [CACACA_negctrl_site736],6.99
3,GTAAGAAACAGACACACACACATATATATATATATA [CACACA_site794],9.69
4,GAACAGTTTGTTTAGTGTACTTTTTTTTTTTTTTTT [XGTACX_site8881],7.65
5,AATAATTTTATCGGTACACACTGTATGCATAATATT [CACACA_site4364],7.14
6,CTTAATTTAATGAAATGTACATATAAAAATATTATA [XGTACX_site3303],7.11
7,TTTGATCGATGGATTTAACACACAAAAAAAAAAAAA [CACACA_site9279],7.01
8,ATGTACAAAATAAGCACACACAAAAAAAAAAAAAAT [CACACA_site2998],7.05
9,TCAAAAATAAAGATCACACATATATATATATATATA [CACACA_site4381],9.99
10,TCTAATTACAAAAACATACACACAAAAAAAAAAAAA [CACACA_site3783],6.89
11,CCTATAAATGCATTCACACATATATATTTATATTAT [CACACA_site6086],7.18
12,ATGATAAACATGGATACACACATATAGATTGCATAT [CACACA_site6843],6.97
13,ATATATATTAACAATACACACGTGTATACCTTATTG [CACACA_site5258],7.26
14,TTCATCTTAAAATTGGGTACATAACACAAAGTATAA [XGTACX_site1894],7.05
15,ATTTCTCTATCGTAATGTACATAAAAAAGAAAAACA [XGTACX_site6374],7.13
16,TTATTAAATTCATAAGTGCATTTATGATTAATTTTT [GTGCAC_site9749],9.08
17,TTACATGTAAAAGGTACACACATTATGTATACAAAT [CACACA_site1117],7.15
18,TTTTTTTTTTTTTTTTGTCCGTACTGCTTTGTGTTT [XGTACX_site3687],6.99
19,CTATAAATATTTTATTGTACACACTTTTTATGAATG [XGTACX_site6711],7.22
20,ATATATATATAGTGCACACTTAAGAATATAAAGAGG [CACACA_site1151],10.1
21,AAAATTTTTAGTTATACACACAACATAGAAAATATT [CACACA_site328],7
22,AATACATACAGACACACACACACATATATATATATA [CACACA_site3558],9.52

row,Sequence,gcPBM binding intensity (ln)
1,AAACTTAATATCGGTACACACACAAGATAAGAATTA [CACACA_site8200],6.97
2,CACATACACCCATACACACACATATATATTAAGATA [CACACA_site4459],7.6
3,AAAAGGAAAAATATCACACATATATATATATATATA [CACACA_site5586],9.92
4,ATTATTATACACAAATGTACATGTGAATTTTTTTTC [XGTACX_site6982],6.96
5,AATAAGTAACAAAATACACACATATAGGTAATTATA [CACACA_site6949],6.83
6,ATATATATTTATAGGTGTACAAAATACTATTTTAGG [XGTACX_site8499],7.17
7,TTACCCATTCCCTTTACATGCAATTTGTATTAATAA [TGCATGCA_site412],7.56
8,GTACGTTAGATATATACACACATACATAATAAAGAA [CACACA_site7327],7.22
9,TTAATTCTACTTATTACACACATATTAAGCAAAAAT [CACACA_site4921],7.03
10,ATATGTTCCGAAGGTTGTACACACATAGAAATATAC [XGTACX_site8227],7.47
11,AAAATATATACAATATGTACATATATATATATATAT [XGTACX_site1898],9.23
12,TATATATATATAAAGACACACATCTATAGAATGTTA [CACACA_site2557],9.12
13,TATTTATATTTATACACACACACAAAAAAAAAAAAA [CACACA_site6817],7.22
14,AAAAAAAAAAAAAAAGCACACACACCGATGTGTATA [CACACA_site8224],7.5
15,TATATATATATACCTTGTACTTACATTCGCATATAA [XGTACX_site2466],8.81
16,ACATAAATATATGACACACACACATATTATATATAT [CACACA_site3065],7.74
17,CCATTACCATATAAAACACACAAACATACATACATA [CACACA_site5952],7.23
18,GTATAATTATGTGCACGTACATATTTTATTATATAT [XGTACX_site8586],9.21
19,TACCAAATTTATTCTTGTACATATATATATATATAT [XGTACX_site4832],9
20,AATATAGAAATAAATATATCACATTTGTGTTTAAAC [XGTACX_negctrl_site68],6.82
21,TTTATGACTTGAAAAAGTACACATATATTTATGCAA [XGTACX_site5451],7.29
22,AAAAATAAATATACATGTACATAATAATAATATATA [XGTACX_site8359],6.97
